# Laboratory results: PubChem BioAssay AID485281 (National Center for Advancing Translational Sciences (NCATS), 2010)
# Among all 350,000 compounds or so, about 260 (0.074%) were called active. Inconclusive results, whose numbers are uncertain, are shown with a selection of clear calls. Calls follow the shape of the dose curve; as a rule, active = well fitted inhibition curve with a large enough effect; inconclusive = small, poorly fitted or top-dose-only effect; inactive = no such curve, though single readings can be large or run the other way. Potencies of inconclusive entries are doubtful fits and often do not repeat.
# Target: Ferritin light chain (Equus caballus) (UniProt P02791)
# Experiment: qHTS Assay for Identification of Novel General Anesthetics; also: nearly all actives have a fitted effect of over 20% in size
# Details: apoferritin/1-aminoanthracene competitive binding, fluorescence; activity change, negative = displacement: at 77.5 µM (top of the series)
# How it was run: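 Apoferritin-based anesthetic binding model; compound displacement of fluorescent 1-AMA measured as endpoint fluorescence after 10 minutes at room temperature, scaled to free-ligand and complex controls.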
# % is scaled to controls: 0 for no effect and ±100 for the full control effect; potency is read from the fitted curve at half-maximal effect; tags tell the direction and shape of the fitted curve.
# Sequence of UniProt P02791 (P02791 whole entry, looked up): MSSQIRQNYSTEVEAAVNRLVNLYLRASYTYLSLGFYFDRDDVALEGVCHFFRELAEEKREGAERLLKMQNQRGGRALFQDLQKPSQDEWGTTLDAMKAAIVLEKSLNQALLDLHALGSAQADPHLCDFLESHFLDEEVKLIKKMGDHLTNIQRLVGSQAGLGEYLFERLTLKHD
Compound,Potency,"activity change, negative = displacement"
O=C(Nc1ccc(N2CCOCC2)cc1)c1cccc(-n2cnnc2)c1,"inconclusive: 0.0891 µM [inhibitor, full curve]",–
Cc1c(C=O)c(C=O)c(C)n1Cc1ccccc1,"inconclusive: 28.2 µM [inhibitor, partial curve]",–
c1ccc(C2=Nc3c(ccc4ccccc34)C(c3ccncc3)=NN2)cc1,–,inactive: -20.5%
O=C(c1ccccc1)c1ccc(C(=O)N2CCN(c3ccccc3)CC2)cc1,"inconclusive: 31.6 µM [inhibitor, partial curve]",–
CC1CCCCC12NC(=O)N(CC(=O)NC(=O)Nc1ccc3c(c1)OCCO3)C2=O (stereo unspecified),"inconclusive: 10 µM [inhibitor, partial curve]",–
CSc1ccc(CNc2ncc(-c3cccc([N+](=O)[O-])c3)n2C)cc1,"inconclusive: 28.2 µM [inhibitor, partial curve]",–
C/C(NC(=O)c1ccccc1F)=C1\C(=O)C[C@@H]2[C@H]1C2(C)C,"inconclusive: 31.6 µM [inhibitor, single point]",–
CCOC(=O)c1nc(Nc2ccc(C(=O)OCC(C)C)cc2)c2ccccc2n1,"inconclusive: 12.6 µM [inhibitor, partial curve]",–
COc1ccc(NN=Nc2ccc([N+](=O)[O-])cc2)cc1,"inconclusive: 50.1 µM [inhibitor, single point]",–
NC(=O)C(c1ccc(Cl)cc1)c1ccc(Sc2ccc(Cl)cc2)nn1 (stereo unspecified),"inconclusive: 35.5 µM [inhibitor, partial curve]",–
COc1ccc(N=Cc2c(O)n(-c3cccc(C)n3)c(=O)c3ccccc23)c(OC)c1,–,inactive: -8.93%
O=C(Cc1cccc2ccccc12)N/N=C/c1ccc(F)cc1,"inconclusive: 17.8 µM [inhibitor, partial curve]",–
COc1ccc(C2=NN(C(=O)c3ccccc3)C(c3cccc([N+](=O)[O-])c3)C2)cc1 (stereo unspecified),–,inactive: -18.5%
COC(=O)c1ccc(C(=O)Nc2ccc(C(C)C)cc2N)cc1,–,inactive: -7.89%
COc1ccccc1-c1cc(C(=O)NCc2ccc(F)cc2)no1,"inconclusive: 28.2 µM [inhibitor, partial curve]",–
COC(=O)c1cn(N(C)c2ncc(C(F)(F)F)cc2Cl)c(=O)c2ccccc12,"inconclusive: 6.31 µM [inhibitor, single point]",–
Cc1nc2ccn(Cc3cccs3)c(=O)c2cc1C(=O)NCc1ccccc1,"inconclusive: 44.7 µM [inhibitor, single point]",–
CCC1CCCCN1C(=O)COC(=O)c1n[nH]c2ccccc12 (stereo unspecified),"inconclusive: 35.5 µM [inhibitor, partial curve]",–
O=C(COC(=O)COc1ccccc1)Nc1cccc([N+](=O)[O-])c1,"inconclusive: 28.2 µM [inhibitor, partial curve]",–
CC1Sc2ccc(S(=O)(=O)NCCc3ccccc3)cc2NC1=O (stereo unspecified),"inconclusive: 25.1 µM [inhibitor, partial curve]",–
CCn1c(=O)n(CC(=O)NC2CCCC(C)C2C)c(=O)c2ccccc21 (stereo unspecified),"inconclusive: 3.55 µM [inhibitor, full curve]",–
O=C1C2CC=CCC2C(=O)N1c1nc2n(n1)C(c1ccccc1)CC(c1ccccc1)N2 (stereo unspecified),"inconclusive: 39.8 µM [inhibitor, single point]",–
CN(C)c1oc(-c2ccc(OCc3ccccc3)cc2)nc1C#N,–,inactive: 9.63%
Cc1ccccc1NC(=O)/C=C/c1cccc(C(F)(F)F)c1,"inconclusive: 17.8 µM [inhibitor, partial curve]",–

Compound,Potency,"activity change, negative = displacement"
COc1cc(/C=N/O)cc(Br)c1OCc1cccc(Cl)c1,"inconclusive: 39.8 µM [inhibitor, partial curve]",–
CCOc1cc(/C=C2\SC(=S)N(Nc3ccccc3)C2=O)ccc1O,"inconclusive: 15.8 µM [inhibitor, partial curve]",–
Cc1cc(C(=O)CSc2ccc(F)cc2)cc(C)c1O,"inconclusive: 50.1 µM [inhibitor, single point]",–
CC(C)c1ccc(/C=N/NC(=O)CC(=O)NCc2ccccc2)cc1,"inconclusive: 3.55 µM [inhibitor, full curve]",–
CCn1c(-c2ccc(N)cc2)nc2ccccc21,"inconclusive: 56.2 µM [inhibitor, single point]",–
Cc1ccc(-n2nc(-c3ccco3)cc2C(=O)O)c(C)c1,–,inactive: -12.1%
Cc1ccc(OC(=O)c2ccncc2)c(C)c1,"inconclusive: 35.5 µM [inhibitor, single point]",–
CN1CCN(c2nc(C(N)=O)cc(-c3ccccc3)n2)CC1,–,inactive: -14.5%
Cc1cc(Br)ccc1NC(=O)C1CCCN(S(=O)(=O)c2cccc3nonc23)C1 (stereo unspecified),–,inactive: -4.86%
Cc1ccc2[nH]c(=O)c(CN3CCCCC3)c(-c3ccccc3)c2c1,"inconclusive: 15.8 µM [inhibitor, partial curve]",–
C=C(C)c1cccc(C(C)(C)NC(=O)NC2CCN(Cc3ccccc3)CC2)c1,–,inactive: -9.93%
Cc1ccc(C(=O)COC(=O)CNC(=O)COc2ccccc2C)cc1C,"inconclusive: 28.2 µM [inhibitor, partial curve]",–
O=C(Nc1ccc(Cl)cc1)c1csc(-c2ccccc2)n1,–,inactive: -10.9%
Nn1c(SCC(=O)N2CCc3ccccc3C2)nnc1-c1cccs1,"inconclusive: 35.5 µM [inhibitor, partial curve]",–
CC(C)=CCC/C(C)=C/C=N/NC(=O)c1ccccc1[N+](=O)[O-],"inconclusive: 39.8 µM [inhibitor, partial curve]",–
Cc1ccccc1Nc1cc(C)c2c(O)cccc2n1,"inconclusive: 35.5 µM [inhibitor, single point]",–
CCC(Sc1nc2ccncc2[nH]1)C(=O)Nc1cc(Cl)ccc1C (stereo unspecified),"inconclusive: 50.1 µM [inhibitor, single point]",–
Cc1cccc(C)c1OCc1cc(C(=O)N(C)Cc2nc3ccccc3[nH]2)no1,"inconclusive: 35.5 µM [inhibitor, single point]",–
CCN(CC)S(=O)(=O)c1cc(NC(=O)CN2C(=O)NC(C)(c3ccccc3)C2=O)ccc1C (stereo unspecified),"inconclusive: 12.6 µM [inhibitor, single point]",–
Cc1cccc(OCc2nc(CC(=O)Nc3ccc(C)cc3C)cs2)c1,–,inactive: 4.23%
O=C1CN(CC(=O)N2CCOCC2)c2ccccc2O1,–,inactive: -23.6%
Cc1cccc(S(=O)(=O)NCCC(=O)OC(C)C(=O)NC(=O)NC2CCCCC2)c1 (stereo unspecified),"inconclusive: 35.5 µM [inhibitor, single point]",–
CC1CCc2c(sc3nnn(CCCCOc4ccc(Cl)cc4)c(=O)c23)C1 (stereo unspecified),"inconclusive: 1.41 µM [inhibitor, full curve, poor fit]",–
CC1C=CCC2C(=O)N(c3cccc(C(=O)Nc4ccc(F)cc4)c3)C(=O)C12 (stereo unspecified),"inconclusive: 25.1 µM [inhibitor, partial curve]",–

Compound,Potency,"activity change, negative = displacement"
CCOC(=O)c1c(N)n(CCOC(=O)c2cccs2)c2nc3ccccc3nc12,–,inactive: 375%
COc1ccc2c(c1OC)C(=O)OC2Nc1ccccc1S(=O)(=O)C(F)F (stereo unspecified),"inconclusive: 35.5 µM [inhibitor, partial curve]",–
COc1cc(Cl)c(NC(=O)c2cc(S(=O)(=O)N3CCCCC3)c[nH]2)c(OC)c1,–,inactive: 0.236%
Cc1cc(N/N=C/c2cccc(Br)c2)nc2ccccc12,–,inactive: 1.86%
O=C(Nc1ccccc1Oc1cccnc1)C1CCCN(C/C=C/c2ccccc2)C1 (stereo unspecified),–,inactive: -10%
CC(=O)c1cccc(NS(=O)(=O)c2cc(-c3onc(C)c3C)ccc2C)c1,"inconclusive: 31.6 µM [inhibitor, partial curve]",–
CCCCCCn1c(=O)c(-c2ccccc2)c(O)c2ccccc21,–,inactive: -14.2%
CN(C(=O)/C=C/c1ccc2c(c1)OCO2)c1ccccc1,"inconclusive: 28.2 µM [inhibitor, single point]",–
CC(=O)Nc1cc2c(cc1C(=O)c1ccc(C)cc1)OCCO2,–,inactive: -12.9%
O=C(Nc1nccs1)c1csc2c1CCCC2,"inconclusive: 15.8 µM [inhibitor, partial curve]",–
CCOC(=O)c1sc(=S)n(C)c1C,"inconclusive: 22.4 µM [inhibitor, partial curve]",–
O=S(=O)(NCCc1ccc(Cl)cc1)c1cccs1,"inconclusive: 28.2 µM [inhibitor, partial curve]",–
COc1ccc(CSc2nnc(C)s2)cc1F,–,inactive: -13.9%
c1ccc(CSc2nnnn2-c2cccc3ccccc23)nc1,"inconclusive: 22.4 µM [inhibitor, partial curve]",–
CC1(C)CC(=O)C(CC2=C(O)CC(C)(C)CC2=O)C(=O)C1,"inconclusive: 3.55 µM [inhibitor, partial curve]",–
O=C(c1ccc2ncsc2c1)N1CCCCC1,–,inactive: -1.4%
c1ccc(CSc2ncnc3ccccc23)cc1,"inconclusive: 25.1 µM [inhibitor, partial curve]",–
O=C1CCC(=O)N1CC(=O)N(c1ccccc1)c1ccccc1,"inconclusive: 25.1 µM [inhibitor, single point]",–
CCC1(C)Cc2c(sc3nnn(CC(=O)Nc4ccc(Cl)cc4)c(=O)c23)CO1 (stereo unspecified),"inconclusive: 11.2 µM [inhibitor, partial curve]",–
COc1ccc(N(CC(C)C)S(=O)(=O)c2nnc(NC(=O)c3cccs3)s2)cc1,"inconclusive: 56.2 µM [inhibitor, single point]",–
Cc1ccnc(NC(=O)C2COc3ccccc3O2)c1 (stereo unspecified),"inconclusive: 20 µM [inhibitor, partial curve]",–
N#CCSc1nccc(-c2cc(Cl)sc2Cl)n1,"inconclusive: 50.1 µM [inhibitor, single point]",–
COC(=O)CCC(=O)Nc1cc(Cl)cc(Cl)c1,"inconclusive: 15.8 µM [inhibitor, partial curve]",–
